Out of some 340,000 compounds screened, about 12,000 (3.5%) were called active. Inconclusive means that the source gave no clear call. Such entries were picked first, then a sample of the others. The call rests on the fitted dose curve; in most records, active means well fitted inhibition curve with a large enough effect; inconclusive means small, poorly fitted or top-dose-only effect, or another doubt; inactive means no such curve, though single readings can be large or run the other way. Potencies of inconclusive entries are left out as doubtful fits.
Assay: qHTS Assay for Inhibitors of Hepatitis C Virus (HCV)
Conditions: Huh7.5.1 HCVcc-Cre (HCVcc is cell-culture hepatitis C virus) infection, luciferase reporter, 44 h; activity change, negative = inhibition: at 41.8 µM (top of the series) unless noted
How it was run: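 Whole-lifecycle infectious HCVcc-Cre system; cells 1,000/well, compound then virus (~0.5 moi) added 4 h after plating, 44 h culture. Luciferase read 15 sec following 15 min substrate incubation, room temp.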
On the % scale 0 is the no-effect control and ±100 the full control effect; potency means the concentration at half of the fitted maximal effect; tags describe the fitted curve by direction and shape.

Row | SMILES | Potency | activity change, negative = inhibition
1 | Cc1ccsc1/C=C/C1=Cc2c(sc(NC(=O)CSc3n[nH]c(N)n3)c2C#N)C(C)(C)C1 | active: 11.2 µM | 
2 | COC(=O)c1ccc(CN2CCc3ccc(NC(=O)c4ccncc4)cc3C2)cc1 | active: 8.91 µM | 
3 | CC(C)(CNC(=O)CCC1CCCC1)CNC(=O)CCC1CCCC1 | inactive | 
4 | COc1ccc2c(C)cc(=O)oc2c1C | inactive | 
5 | Cc1nc2sc(C#N)c(N)c2c2c1CCCC2 | inconclusive [inhibitor, single point] | 
6 | CN(C)/C=C1\SC(=S)N(c2ccc(F)cc2)C1=O | inactive | 
7 | NNC(=O)c1cc(S(=O)(=O)N2CCOCC2)c[nH]1 | inactive | 
8 | Cc1csc(NC(=O)c2c(-c3c(Cl)cccc3Cl)noc2C)n1 | inconclusive [inhibitor, partial curve] | 
9 | Cc1cc(NC(=O)C(C)SCC(=O)Nc2cccc(S(=O)(=O)N3CCCCCC3)c2)no1 (configuration not stated) | inconclusive [inhibitor, single point] | 
10 | O=C(NC12CC3CC(CC(C3)C1)C2)c1cccnc1Cl | inactive | 
11 | CCc1ccc2[nH]c3nc(SCCN4CCOCC4)nnc3c2c1 | inconclusive [inhibitor, single point] | 
12 | Cc1cc(Cl)ccc1OCc1cn2cccnc2n1 | inactive | 
13 | N#Cc1c(N2CCCC(O)C2)nc(N)c2c(N)nc3c(c12)CC(=O)N3C12CC3CC(CC(C3)C1)C2 (configuration not stated) | active: 3.98 µM | 
14 | CC(C)n1cnc2c(N(C)c3ccccc3)nc(N(CCN(C)C)Cc3ccccc3)nc21 | inconclusive [inhibitor, full curve] | 
15 | COc1cccc(OCc2cc(C(=O)N3CCN(c4ccccc4OC)CC3)no2)c1 | inconclusive [inhibitor, single point] | 
16 | O=C1c2ccccc2-c2nnc(-c3ccc(F)cc3)cc21 | inactive | 
17 | CSc1sc(-c2n[nH]c(=S)n2C)c2c1C=CCC2 | inconclusive [inhibitor, single point] | 
18 | OCCNCC(O)CN1c2ccccc2Sc2ccccc21 (configuration not stated) | inactive | 
19 | Fc1ccccc1N1CCN(Cc2cc(-c3ccccc3)on2)CC1 | inactive | 
20 | CC(C)(C)C(=O)N/C(N)=N/c1nc2ccccc2o1 |  | inconclusive: -46.9% [inhibitor]
21 | N/C(=N\OC(=O)c1ccc(Cl)cc1)c1ccn[nH]1 | inconclusive [inhibitor, single point] | 
22 | Cc1ccccc1C(=O)Nc1cccc(-c2ccc(N3CCOCC3)nn2)c1 | inactive | 
23 | O=C(NCC1CC1)c1onc(CSc2ccccc2)c1C(=O)NCC1CC1 | inconclusive [inhibitor, single point] | 
24 | Cc1ccc(C(O)c2nc3ccccc3n2C)cc1 (configuration not stated) | inconclusive [inhibitor, single point] | 
25 | CN(Cc1ccccc1F)C(=O)CCNC(=O)c1ccc(C(C)(C)C)cc1 | inactive | 
26 | CCOC(=O)c1c(C)c(C(=O)Nc2ccc3c(c2)OCCO3)c(C)n1C | inconclusive [inhibitor, partial curve, poor fit] | 

Row | SMILES | Potency | activity change, negative = inhibition
27 | O=C(CSc1ccc(F)cc1)N1CCC(c2nc3ccccc3s2)CC1 | inconclusive [inhibitor, single point] | 
28 | CC1CC(C)CN(C(=O)CSc2ncnc3sccc23)C1 (configuration not stated) | inactive | 
29 | Cc1cc(C)c(C)c(S(=O)(=O)N2CCN(c3ccccn3)CC2)c1C | inconclusive [inhibitor, single point] | 
30 | COc1ccc(CCNC(=S)NCc2ccc(Cl)c(Cl)c2)cc1OC | inactive | 
31 | CN(C)Cc1c(O)ccc2c(-c3ccccc3)cc(=O)oc12 | inactive | 
32 | CCN1C(=O)/C(=C/C=C2/SCCN2C)SC1=S | inactive | 
33 | Cc1nc2cc(C(F)(F)F)ccc2n1CCNc1nc(-c2cc(Cl)c(N)c(Cl)c2)cs1 | inconclusive [inhibitor, partial curve] | 
34 | c1ccc(-c2onc(-c3ccco3)c2-c2ccc3[nH]ccc3c2)cc1 | inconclusive [inhibitor, partial curve] | 
35 | Cc1ccc(NC(=O)CN2CCc3ccccc3C2)cc1S(=O)(=O)N1CCOCC1 | inconclusive [inhibitor, partial curve, poor fit] | 
36 | O=C(OCc1ccc([N+](=O)[O-])cc1)c1cc(S(=O)(=O)N2CCCCC2)ccc1N1CCOCC1 | inconclusive [inhibitor, single point] | 
37 | O=[N+]([O-])c1ccc2nc(-[n+]3c(-c4ccccc4)cc(-c4ccccc4)cc3-c3ccccc3)[nH]c2c1 | inconclusive [inhibitor, partial curve, poor fit] | 
38 | Cn1c([N+](=O)[O-])cnc1N1CCN(c2nncs2)C1=O | inactive | 
39 | Cc1cccc(N2CC34C=CC(O3)C(C(=O)O)C4C2=O)c1 (configuration not stated) | inactive | 
40 | Cc1cc(C)c2c(N)c3cccc(C)c3nc2n1 | active: 12.6 µM | 
41 | CNC(=S)NC1CC2CCCC(C1)N2Cc1ccc(C)cc1 (configuration not stated) | inconclusive [inhibitor, partial curve] | 
42 | N/C(=N\OC(=O)c1ccc2ccccc2c1)c1ccccn1 | inactive | 
43 | CCN1CCN(c2cc3c(nn2)Oc2ccccc2N3C)CC1 | inconclusive [inhibitor, single point] | 
44 | CCOc1ccc(C)cc1-n1nc2ccccc2n1 | inconclusive [inhibitor, single point] | 
45 | COC(=O)c1ccc(C(=O)NC2CCCc3c2cnn3-c2ccc(C)c(C)c2)cc1 (configuration not stated) | active: 12.6 µM | 
46 | CC(=O)OCC(=O)[C@H]1CC[C@H]2[C@@H]3CCC4=CC(=O)CC[C@]4(C)[C@H]3CC[C@]12C | inconclusive [inhibitor, full curve, poor fit] | 
47 | Cc1nonc1CN(C)C(=O)CC1C(=O)NCCN1Cc1c(F)cccc1Cl (configuration not stated) | inactive | 
48 | CN(C)c1ccc(/C=N/NC(=O)c2ccccn2)cc1 | inactive | 
49 | COc1ccc(NC(=O)c2oc3ccccc3c2NC(=O)C2CCCO2)cc1OC (configuration not stated) | inconclusive [inhibitor, full curve] | 
50 | CCc1ccc(-c2cc(C)no2)cc1S(=O)(=O)N1CCN(c2ccc(OC)cc2)CC1 | inconclusive [inhibitor, partial curve] | 
51 | CC(NC1CCCCC1)C(O)C12CC3CC(CC(C3)C1)C2 (configuration not stated) | inconclusive [inhibitor, single point] | 
52 | O=C(NCCCN1CCOCC1)C1Cc2c(ccc3ccccc23)O1 (configuration not stated) | inconclusive [inhibitor, partial curve] | 

Row | SMILES | Potency | activity change, negative = inhibition
53 | C=CC[C@]12CCc3sccc3C1N(c1ccc(C(=O)OCC)cc1)C2=O (some centres not stated) | inconclusive [inhibitor, partial curve, poor fit] | 
54 | O=C(c1c(F)cccc1F)N1CCCC(c2nc(-c3ccc(Cl)cc3)no2)C1 (configuration not stated) | active: 11.2 µM | 
55 | CCn1c(SCC(=O)N2CCCc3ccccc32)nnc1-c1c[nH]c2ccccc12 | inconclusive [inhibitor, partial curve] | 
56 | NS(=O)(=O)c1ccc(CNC(=O)c2cc(=O)c3cc(Cl)ccc3o2)cc1 | inactive | 
57 | CC(=O)c1sc(N/N=C\c2ccc(C)cc2)nc1C | inconclusive [inhibitor, single point] | 
58 | CN1CC(c2ccccc2)C(c2ccc(Cl)cc2)=N1 (configuration not stated) | inactive | 
59 | Cc1cccc(N=Nc2c(C)nn(-c3ccccc3)c2N)c1C | inconclusive [inhibitor, single point] | 
60 | CC(C)CCNC(=O)NC(=O)COC(=O)c1cc(S(=O)(=O)N2CCOCC2)ccc1N1CCCCC1 | inconclusive [inhibitor, single point] | 
61 | O=C(CCCN1C(=O)CCC1=O)Nc1ccc2c(c1)OCO2 | inactive | 
62 | COc1ccc(C(=O)N/C(=C\c2cn(S(=O)(=O)N(C)C)c3ccccc23)C(=O)N2CCOCC2)cc1 | inactive | 
63 | Cc1ccc(NC(=O)c2cc(=O)c3ccccc3o2)cc1 | inconclusive [inhibitor, single point] | 
64 | Cc1ccc(NC(=O)CSc2nc3ccccc3c3nc4ccccc4n23)cc1 | inconclusive [inhibitor, full curve, poor fit] | 
65 | COc1ccc(OCc2nc(N)nc(Nc3ccccc3)n2)cc1 | inactive | 
66 | CCC(C)c1ccc(C(CC)NC(=O)C2CCCO2)cc1 (configuration not stated) | active: 10 µM | 
67 | CCc1cc(C(=O)N2CCN(S(=O)(=O)c3ccc(Cl)cc3)CC2)sc1C | inconclusive [inhibitor, partial curve] | 
68 | CC(=O)c1sc(NC(=O)COc2ccc([N+](=O)[O-])cc2)nc1C | inactive | 
69 | COc1cccc(NC(=O)Nc2nnc(Cc3ccccc3)s2)c1 | inconclusive [inhibitor, single point] | 
70 | COc1ccc(/C=N/NC(=O)c2ccc3c(c2)NC(=O)C(C)(C)O3)cc1OC | inactive | 
71 | CCSc1nsc(NC(=O)Nc2cccc(F)c2)n1 | active: 10 µM | 
72 | C/C(Cl)=C\Cn1c(O)c(N=NC(N)=S)c2cc(Br)ccc21 | active: 11.2 µM | 
73 | O=C1c2ccccc2C(Nc2ccc(F)c(Cl)c2)N1c1ccccn1 (configuration not stated) | inactive | 
74 | Cc1ccc(NC(=O)c2ccccc2)cc1-n1cnnn1 | inactive | 
75 | CC1CCN(c2nc3c(c(=O)[nH]c(=O)n3C)n2CC(C)CSc2nnnn2-c2ccccc2)CC1 (configuration not stated) | inactive | 
76 | Cc1ccc2oc(-c3cccc(NC(=S)NC(=O)/C=C/c4ccco4)c3)nc2c1 | inactive | 
77 | C[C@H](CO)N1C[C@H](C)[C@H](CN(C)Cc2ccncc2)Oc2ccc(NC(=O)Nc3ccc(C(F)(F)F)cc3)cc2CC1=O | inconclusive [inhibitor, single point] | 
